# Source: publication PMC4336329 (PLoS ONE, 2015)
# In all, about 310,000 compounds went through this assay and about 2,200 (0.71%) showed an effect of 50% or more. The effect is printed as a negative number. This is one part of the list.
# Molecular target: human ether-à-go-go-related gene (hERG) potassium channel (human, UniProt Q12809)
# Experiment: primary screen, population patch clamp on CHO cells stably expressing hERG
# Sequence of human ether-à-go-go-related gene (hERG) potassium channel (Q12809 whole entry, looked up): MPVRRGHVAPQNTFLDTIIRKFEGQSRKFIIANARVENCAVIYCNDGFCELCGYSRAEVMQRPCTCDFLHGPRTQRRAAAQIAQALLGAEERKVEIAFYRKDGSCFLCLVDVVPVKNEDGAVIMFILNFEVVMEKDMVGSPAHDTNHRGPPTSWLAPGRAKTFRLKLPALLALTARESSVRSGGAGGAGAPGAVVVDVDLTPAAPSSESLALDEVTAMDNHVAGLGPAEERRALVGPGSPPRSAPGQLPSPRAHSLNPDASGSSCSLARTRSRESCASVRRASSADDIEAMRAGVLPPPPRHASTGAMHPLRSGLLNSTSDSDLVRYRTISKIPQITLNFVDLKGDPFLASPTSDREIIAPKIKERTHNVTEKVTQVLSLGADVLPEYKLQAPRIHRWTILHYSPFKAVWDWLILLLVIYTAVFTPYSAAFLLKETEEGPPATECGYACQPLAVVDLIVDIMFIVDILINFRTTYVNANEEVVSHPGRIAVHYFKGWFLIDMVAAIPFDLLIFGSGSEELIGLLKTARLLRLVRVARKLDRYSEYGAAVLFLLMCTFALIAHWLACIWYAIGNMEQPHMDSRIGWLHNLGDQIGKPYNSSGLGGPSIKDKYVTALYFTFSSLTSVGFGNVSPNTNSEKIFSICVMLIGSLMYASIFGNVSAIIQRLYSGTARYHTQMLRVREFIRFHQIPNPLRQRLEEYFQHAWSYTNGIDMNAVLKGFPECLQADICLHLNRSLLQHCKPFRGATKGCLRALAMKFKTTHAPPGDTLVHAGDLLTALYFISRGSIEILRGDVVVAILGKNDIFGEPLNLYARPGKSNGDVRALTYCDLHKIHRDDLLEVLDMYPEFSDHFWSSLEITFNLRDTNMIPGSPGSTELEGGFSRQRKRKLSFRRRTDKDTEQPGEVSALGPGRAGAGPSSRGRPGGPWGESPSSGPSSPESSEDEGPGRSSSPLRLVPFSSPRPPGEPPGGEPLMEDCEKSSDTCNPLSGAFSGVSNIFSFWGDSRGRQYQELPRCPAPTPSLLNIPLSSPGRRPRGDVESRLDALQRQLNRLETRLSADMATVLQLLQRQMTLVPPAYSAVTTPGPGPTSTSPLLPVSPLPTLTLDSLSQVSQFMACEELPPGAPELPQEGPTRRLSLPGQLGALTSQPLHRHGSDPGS
row,Compound,"hERG current change (%, negative = inhibition) at 1uM"
1,CCCC(C(=O)NCC1CCCO1)N(Cc1ccco1)C(=O)CNS(=O)(=O)c1ccccc1 (stereo not shown),15%
2,COCCCN1CC(=O)N2C(c3ccc(OC)c(OC)c3)c3[nH]c4ccccc4c3C[C@H]2C1=O (stereo partly shown),9.53%
3,CCOC(=O)C1CCN(S(=O)(=O)c2cc(Br)cc3c2N(C(=O)C2CC2)CC3)CC1,6.18%
4,Cc1ccccc1NC(=S)NC1CCCC1,17.3%
5,N#CC1=C(N)OC2=C(C(=O)CC(c3ccco3)C2)C1c1ccc(OCc2c(F)cccc2Cl)cc1 (stereo not shown),6.87%
6,COc1cc(C)c(CNc2ccc(OC)c(OC)c2)cc1C,11.8%
7,COc1ccc(Cl)cc1NC(=O)C1COc2ccccc2O1 (stereo not shown),12.5%
8,CNS(=O)(=O)c1ccc(C(=O)NCC(=O)NCC2COc3ccccc3O2)cc1 (stereo not shown),6.97%
9,COc1ccc(CN=C(Nc2ccccc2)SC2CC(=O)NC2=O)cc1 (stereo not shown),7.03%
10,N#CCCn1cc(C(=O)Nc2ccccc2Cl)c(-c2ccc(F)cc2)n1,15.4%
11,O=C(CCN1C(=O)c2ccccc2S1(=O)=O)Nc1cccc2ccccc12,0.236%
12,Cc1ccc(C(=O)N2N=C3c4ccccc4S(=O)(=O)N3[C@H]2N(C)C)cc1,9.03%
13,CCCC(CCC)=NNC(=O)c1ccccc1F,13.4%
14,COc1ccc(Cn2nc(C)cc2C)cc1OC,-0.445%
15,O=c1c2ccccc2nnn1CSc1nnc(C2COc3ccccc3O2)n1-c1ccccc1 (stereo not shown),11.6%
16,COc1cc2c(cc1OC)CN(C(=O)c1ccc([N+](=O)[O-])o1)CC2,-8.49%
17,Cc1ccc(Sc2cnc(N)nc2C)cc1,6.07%
18,Cc1c(NC(=O)CSc2nnnn2-c2ccc(O)cc2)c(=O)n(-c2ccccc2)n1C,-1.4%
19,Cc1nn(Cc2ccccc2)c(C)c1NC(=O)c1ccc([N+](=O)[O-])cc1[N+](=O)[O-],-9.88%
20,COc1ccc(-c2sc(Nc3ccccc3)n[n+]2-c2ccc(F)cc2)c(OC)c1OC.[Cl-],-42.1%
21,COc1ccc(Nc2nnc(-c3ccc(O)cc3)c3ccccc23)cc1C(N)=O,9.02%
22,CC1CCN(c2nc(-c3ccncc3)nc3ccccc23)CC1,7.53%
23,Cc1cc(S(=O)(=O)NCc2ccccc2)ccc1OCC(=O)N1CCCC1,7.22%
24,O=C1C(=O)N(CCCN2CCOCC2)C(c2ccc(F)cc2)/C1=C(/O)c1ccccc1 (stereo not shown),17.9%
25,CC(=O)c1ccc(N2CCN(C(=O)C3CCCN(S(=O)(=O)c4cnc[nH]4)C3)CC2)cc1 (stereo not shown),8.85%
26,O=C1c2ccccc2C(=O)N1Nc1ccc([N+](=O)[O-])cc1[N+](=O)[O-],14.6%
27,NC1=NC(=Nc2cccc(S(=O)(=O)N3CCOCC3)c2)c2ccccc21,-0.889%
28,CCOc1ccc(-c2cc(CCCC(=O)Nc3cccc(OC)c3)no2)cc1,15.5%

row,Compound,"hERG current change (%, negative = inhibition) at 1uM"
1,Cc1ccc(C(=O)c2cc3c(cc2[N+](=O)[O-])OCCO3)cc1,3.98%
2,c1cc2[nH]snc2c2nc(C3CC3)nc12,-1.81%
3,CC(=O)c1ccc(NCC(=O)N2CCN(S(=O)(=O)c3ccccc3)CC2)cc1,7.78%
4,Cc1csc(NC(=O)Cc2ccccc2[N+](=O)[O-])n1,10.5%
5,CCn1c(SCC(=O)Nc2nnc(C)s2)nnc1C(C)NC(=O)c1ccccc1 (stereo not shown),14.7%
6,C/C(=N/NC(=O)c1ccco1)c1ccc(Br)s1,8.71%
7,COC(=O)C(C)NC(=O)C12CC3CC(CC(C3)C1)C2 (stereo not shown),12%
8,CC1=C/C(=N\OS(=O)(=O)c2ccccc2)C(C)=CC1=O,11%
9,COC(=O)c1c(C)oc(C)c1S(=O)(=O)N1CCCC1,10.8%
10,CCc1ccccc1NC(=O)Nc1cccn(Cc2ccc(F)cc2)c1=O,13.2%
11,Nc1nonc1C(=O)N/N=C/c1cccc([N+](=O)[O-])c1,-6.3%
12,CCc1ccc(Nc2ncc3c(n2)CC(c2ccco2)CC3=O)cc1 (stereo not shown),5.43%
13,Cc1cc(C)cc(N(CC(=O)Nc2ccc(-c3nc4ccc(C)cc4s3)cc2)S(C)(=O)=O)c1,5.59%
14,Cc1cc(C)c2cc(C=O)c(Cl)nc2c1,9.63%
15,CCc1ccc2c(c1)C(c1ccc(N3CCOCC3)cc1)=NNC(c1ccncc1)=N2,-1.9%
16,CCc1ccc(NC(=O)CC2C(=O)NCCN2C(=O)c2ccc(F)cc2)cc1 (stereo not shown),-7.06%
17,CNc1ccc(Br)cc(C(=O)/C=C/c2ccc(OC)cc2)c1=O,4.02%
18,CC1=CC(C)C(C(=O)O)C(C(=O)Nc2cccnc2)C1 (stereo not shown),15.9%
19,CN(c1ccccc1)c1nc(N)c([N+](=O)[O-])c(NCCO)n1,14.5%
20,NC(=O)CC1C(=O)N(c2ccc(Cl)cc2)C(=S)N1NC(=O)c1cccc(F)c1 (stereo not shown),11.9%
21,O=C(O)C(=O)O.O=[N+]([O-])c1ccccc1S(=O)(=O)N1CCN(CC2CC3C=CC2C3)CC1 (stereo not shown),12.4%
22,c1ccc(-c2nnc(OCCN3CCOCC3)c3ccccc23)cc1,14.5%
23,CCC(C)NC(=O)C1CCN(S(=O)(=O)c2ccc(-n3cnnn3)cc2)CC1 (stereo not shown),15.9%
24,O=C(CCCN1C(=O)/C(=C/c2ccccc2Cl)SC1=S)NCCCN1CCOCC1,0.473%
25,C=CCn1c(=O)c(CCC(=O)Nc2ccc(N3CCOCC3)cc2)nc2cc(C(F)(F)F)ccc21,-1.24%
26,CCCCC(C(=O)NC1CCCC1)N(C(=O)c1snc(C(N)=O)c1N)c1ccc(OCC)cc1 (stereo not shown),8.4%
27,Cc1ccc2c(c1)CCCN2C(=O)c1c(C)noc1C,-3.48%
